Reference: the RNAGym collection of RNA variant scans (doi:10.7554/elife.90254)
The source gives no read counts; variants with many changes may rest on few reads.

B1: LINE1-mini (parent)
chain: GGCAGAGCUCAACACAGCGUGGCAAAGUGGCUGUGGCUAGACUGCC

Variants of: B1
Experiment: self-cleavage, relative activity (ratio to wild type); higher = more cleavage; in vitro, sequencing; the parent is a self-cleaving ribozyme
For A11C C31G G35U U38G, the self-cleavage was 0.01.
A11C G19U C42A gave a self-cleavage of 0.
A11C C13A A16C U34A C42U gave a self-cleavage of 0.
Work on A11C A12C C18G yielded a self-cleavage of 0.03.
Variant A11C U28C U34A G44U has a self-cleavage of 0.
With A11C A16G C46U the self-cleavage was 0.02.
Work on A11C G21U C37U yielded a self-cleavage of 0.
C10U G17A U43A showed a self-cleavage of 0.15.
With C10U C37U C46A the self-cleavage was 0.
Variant C10U G19U A24C U28C has a self-cleavage of 0.22.
C10U G17C G27C C31U U34A C46U showed a self-cleavage of 0.03.
Variant A11C U28A G36U A41C has a self-cleavage of 0.
With C10U U20A G30U A39C the self-cleavage was 0.01.
A11C G21C C31G gave a self-cleavage of 0.01.
Variant C10U G19C G36C C37G has a self-cleavage of 0.02.
Work on A11C G30U C37A yielded a self-cleavage of 0.03.
Variant C10U U43A C45U has a self-cleavage of 0.18.
Work on C10U C18U G21C G33C C45G C46G yielded a self-cleavage of 0.02.
C10U C18U U34C gave a self-cleavage of 0.04.
In the case of C10U G21A A25U U43A, the self-cleavage is reported as 0.03.
C10U G19U A39C showed a self-cleavage of 0.13.
Work on C10U C18U G27C U28C G29A C31G U34C G44C C46A yielded a self-cleavage of 0.
A11C A25C U38C showed a self-cleavage of 0.05.
Variant C10U G36A G40A has a self-cleavage of 0.04.
With A11C U34A C42A the self-cleavage was 0.03.
Variant C10U G21U G44A has a self-cleavage of 0.12.
With C10U G27C G44A the self-cleavage was 0.1.
With C10U G21U C45U the self-cleavage was 0.13.
With A11C G17C C37G A41U the self-cleavage was 0.
In the case of C10U U32A C46G, the self-cleavage is reported as 0.1.
For C10U G29C G33A, the self-cleavage was 0.07.
Work on A11C G35U C45G yielded a self-cleavage of 0.01.
A11C G35U C45A showed a self-cleavage of 0.01.
A11C C13U U20A U32C gave a self-cleavage of 0.01.
For C10U G29C C31U U38A, the self-cleavage was 0.03.
With C10U U20G C31A the self-cleavage was 0.02.
A11C G27A G29U G33C G35A A41G gave a self-cleavage of 0.01.
For A11C C13A C15G G40C, the self-cleavage was 0.01.
For C10U U32C U43A, the self-cleavage was 0.04.
With C10U G36U A41U the self-cleavage was 0.03.
With A11C G21C A26C C46U the self-cleavage was 0.02.
Variant A11C G22C G36U has a self-cleavage of 0.01.
Variant A11C C13U G36C G40U has a self-cleavage of 0.04.
In the case of C10U U28C C31G, the self-cleavage is reported as 0.01.
A11C C15U G21C gave a self-cleavage of 0.05.
Variant C10U G22U A39C has a self-cleavage of 0.12.
A11C G27A G35C C45U gave a self-cleavage of 0.02.
Work on A11C G30U G35U yielded a self-cleavage of 0.
C10U C31U G36A showed a self-cleavage of 0.02.
A11C C13A C23U C31G gave a self-cleavage of 0.05.
For C10U G29U G35C U43A, the self-cleavage was 0.03.
In the case of A11C G35A C45U, the self-cleavage is reported as 0.01.
In the case of A11C A12C C13G C31G G36A C45G, the self-cleavage is reported as 0.
Work on A11C U20A G30U G40C C42A yielded a self-cleavage of 0.
A11C A16G G27U gave a self-cleavage of 0.01.
With C10U C18A G19A G40A the self-cleavage was 0.04.
In the case of C10U C18A U34C A41C, the self-cleavage is reported as 0.05.
A11C U34A G35U U38A showed a self-cleavage of 0.
A11C G17A G19A G35A G36U C45A showed a self-cleavage of 0.02.
Work on C10U G33C A39G yielded a self-cleavage of 0.02.
With C10U U20C A25C G33A G36C the self-cleavage was 0.
With A11C C15A C37A G40U the self-cleavage was 0.
For A11C G29C G36A, the self-cleavage was 0.01.
A11C C23U A26G gave a self-cleavage of 0.03.
For A11C C37A G40U C42G, the self-cleavage was 0.
A11C C37A G40C G44U showed a self-cleavage of 0.04.
Work on A11C A16C A24G A25U U38C yielded a self-cleavage of 0.01.
C10U G40C C46A showed a self-cleavage of 0.03.
C10U G40C C46G gave a self-cleavage of 0.03.
Variant C10U G40C C46U has a self-cleavage of 0.01.
Variant C10U G27C U28C A39C G44C has a self-cleavage of 0.
Variant A11C C18U G27C has a self-cleavage of 0.02.
For C10U G30U G44U, the self-cleavage was 0.26.
With A11C G33A U38A G40U the self-cleavage was 0.01.
Variant C10U G17A G29U has a self-cleavage of 0.02.
With C10U U28A U34A the self-cleavage was 0.36.
For C10U C23G G30U C37U, the self-cleavage was 0.01.
Work on A11C G19A C46G yielded a self-cleavage of 0.04.
A11C C15U G22A A24C A26U showed a self-cleavage of 0.01.
In the case of C10U U28G U34G, the self-cleavage is reported as 0.04.
Work on A11C C23U A25U C37U C42G C45U C46U yielded a self-cleavage of 0.01.
Variant C10U G21C G22C A24C has a self-cleavage of 0.03.
With C10U U20A G22U C37A the self-cleavage was 0.01.
For C10U C23A G33U, the self-cleavage was 0.01.
